The values that follow come from the supplement of paper PMC6531468.

The other results are listed elsewhere or left out. These are enrichments in a pooled selection; single values are uncertain. Each score is taken over the longer molecules that contain the sequence shown.

The test system of this assay is IMP3 KH1-2. The assay can be described thus: 6-mer SELEX enrichment z-score vs GST control; IMP3 is the RNA-binding protein IGF2BP3; higher = more enriched by binding. To be noted: construct: KH1-2 (164-376); SELEX round: R4. As for the experimental part: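 SELEX-seq with GST-tagged IMP3 KH1-2 (Pro164-Phe376) and an N40 RNA pool, round 4 (stringent 300/600 mM KCl washes). 6-mer z-score of sequence-tag enrichment normalised to the corresponding GST SELEX round; RNA k-mers written as DNA (T for U).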
Sequence of IMP3 KH1-2 (chain, as listed by the source): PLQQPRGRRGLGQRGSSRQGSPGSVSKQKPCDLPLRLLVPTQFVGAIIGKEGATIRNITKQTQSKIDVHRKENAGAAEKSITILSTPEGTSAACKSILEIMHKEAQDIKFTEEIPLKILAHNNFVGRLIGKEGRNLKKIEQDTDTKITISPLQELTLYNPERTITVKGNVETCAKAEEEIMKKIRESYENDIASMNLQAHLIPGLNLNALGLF
On to CTGTTT, for which the “6-mer SELEX enrichment z-score” value is 0.24.

In the case of AGCGTT, the “6-mer SELEX enrichment z-score” value is -1.83.

On to GTGACC, for which the “6-mer SELEX enrichment z-score” value was -0.834.

As for TCCCAA, the “6-mer SELEX enrichment z-score” value is -1.63.

With TGAGTG, the “6-mer SELEX enrichment z-score” value was -0.971.

On to ACGCTT, for which the “6-mer SELEX enrichment z-score” value was 0.113.

For CCTGTG, the “6-mer SELEX enrichment z-score” value was -0.444.

Take GGATTG: the “6-mer SELEX enrichment z-score” value turned out to be 0.267.

As to GTGCCC, the “6-mer SELEX enrichment z-score” value was -1.36.

With AGACAG, the “6-mer SELEX enrichment z-score” value was determined as 0.539.

On to ACGTGC, for which the “6-mer SELEX enrichment z-score” value is -0.619.

In the case of TTGGGA, the “6-mer SELEX enrichment z-score” value is -0.013.

In the case of AATCCC, the “6-mer SELEX enrichment z-score” value was -0.654.

Take CTTTTG: the “6-mer SELEX enrichment z-score” value was 0.094.

Regarding CACGGT, the “6-mer SELEX enrichment z-score” value is -0.078.

On to ACTTCA, for which the “6-mer SELEX enrichment z-score” value was 1.04.

For ACTGGC, the “6-mer SELEX enrichment z-score” value was 0.331.

With CGTTGT, the “6-mer SELEX enrichment z-score” value is -0.442.

Turning to CTCCTT, the “6-mer SELEX enrichment z-score” value worked out at 0.628.

Consider AGTCCG, for which the “6-mer SELEX enrichment z-score” value was 0.13.

On to ACGCGT, for which the “6-mer SELEX enrichment z-score” value is -1.83.

For CTCTGA, the “6-mer SELEX enrichment z-score” value is -0.324.

As for GACTAA, the “6-mer SELEX enrichment z-score” value was -0.211.

Take AGCTTC: the “6-mer SELEX enrichment z-score” value was -0.211.

As to TGATGT, the “6-mer SELEX enrichment z-score” value amounted to 0.371.

For the sequence AAACTC, the “6-mer SELEX enrichment z-score” value is -1.02.

Consider CAGAGA, for which the “6-mer SELEX enrichment z-score” value was found to be 0.267.

Take GTCACA: the “6-mer SELEX enrichment z-score” value turned out to be 0.088.

For the sequence CTGCTA, the “6-mer SELEX enrichment z-score” value came to 0.345.

Consider CCTTGT, for which the “6-mer SELEX enrichment z-score” value is -0.266.

For CGTTAT, the “6-mer SELEX enrichment z-score” value was determined as 0.015.

Turning to GTGCAT, the “6-mer SELEX enrichment z-score” value stood at 0.344.

For the sequence CAACGG, the “6-mer SELEX enrichment z-score” value is -0.565.

In the case of CCGCAC, the “6-mer SELEX enrichment z-score” value turned out to be 0.792.

For ATCGCG, the “6-mer SELEX enrichment z-score” value is -0.685.

On to GAGAAT, for which the “6-mer SELEX enrichment z-score” value is 0.248.

For the sequence CAATAT, the “6-mer SELEX enrichment z-score” value came out at 1.92.

For the sequence GCAATA, the “6-mer SELEX enrichment z-score” value was found to be 1.16.

Consider ACAAAT, for which the “6-mer SELEX enrichment z-score” value came out at 1.72.

For GTATGG, the “6-mer SELEX enrichment z-score” value was determined as 0.334.
